# About 2,200 (0.71%) of roughly 310,000 compounds showed an effect of 50% or more. The effect is printed as a negative number. Some of the results follow.
# Biological target: human ether-à-go-go-related gene (hERG) potassium channel (human, UniProt Q12809)
# Assay: primary screen, population patch clamp on CHO cells stably expressing hERG
# Chain of human ether-à-go-go-related gene (hERG) potassium channel (Q12809 whole entry, looked up): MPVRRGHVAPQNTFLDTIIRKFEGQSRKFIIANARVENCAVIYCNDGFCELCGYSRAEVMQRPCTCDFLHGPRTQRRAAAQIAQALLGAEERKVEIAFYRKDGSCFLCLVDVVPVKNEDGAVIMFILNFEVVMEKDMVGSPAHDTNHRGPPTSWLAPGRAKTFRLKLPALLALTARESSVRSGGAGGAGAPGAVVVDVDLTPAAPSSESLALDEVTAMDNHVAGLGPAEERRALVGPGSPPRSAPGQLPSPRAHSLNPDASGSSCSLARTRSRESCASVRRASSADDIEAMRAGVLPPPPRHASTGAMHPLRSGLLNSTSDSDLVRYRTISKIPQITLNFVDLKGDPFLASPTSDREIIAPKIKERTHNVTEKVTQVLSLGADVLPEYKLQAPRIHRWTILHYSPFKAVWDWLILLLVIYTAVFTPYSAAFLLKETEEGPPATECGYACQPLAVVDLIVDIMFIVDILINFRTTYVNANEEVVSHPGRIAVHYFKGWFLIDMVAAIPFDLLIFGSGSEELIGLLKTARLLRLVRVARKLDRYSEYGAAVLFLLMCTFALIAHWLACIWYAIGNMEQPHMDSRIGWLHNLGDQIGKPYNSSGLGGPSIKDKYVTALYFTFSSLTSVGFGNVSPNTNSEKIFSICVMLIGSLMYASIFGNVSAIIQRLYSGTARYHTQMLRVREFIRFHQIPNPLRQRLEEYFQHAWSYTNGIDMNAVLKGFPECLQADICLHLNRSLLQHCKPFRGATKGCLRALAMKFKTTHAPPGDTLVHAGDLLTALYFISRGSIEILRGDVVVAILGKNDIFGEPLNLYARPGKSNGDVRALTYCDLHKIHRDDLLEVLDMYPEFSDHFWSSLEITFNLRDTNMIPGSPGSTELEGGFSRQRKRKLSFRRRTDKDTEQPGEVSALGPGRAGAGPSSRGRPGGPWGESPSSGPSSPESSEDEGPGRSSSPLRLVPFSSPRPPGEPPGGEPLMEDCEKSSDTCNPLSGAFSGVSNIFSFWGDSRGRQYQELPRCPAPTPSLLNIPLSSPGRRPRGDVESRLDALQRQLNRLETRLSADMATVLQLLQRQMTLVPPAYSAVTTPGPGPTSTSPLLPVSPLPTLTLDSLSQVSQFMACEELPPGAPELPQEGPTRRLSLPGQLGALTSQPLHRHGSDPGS
row,Compound,"hERG current change (%, negative = inhibition) at 1uM [%]"
1,Cc1cccc(NC(=O)N(Cc2cc3cc(C)ccc3[nH]c2=O)CC2COCCO2)c1 (centres unmarked),4.81
2,CCN1C(=O)C(CC(=O)Nc2ccc(Cl)cc2)N(NC(=O)c2ccncc2)C1=S (centres unmarked),12.2
3,O=C(C1CCCCC1)N1CCN(c2ccccc2F)CC1,9.54
4,CCOC(=O)N1CCN(c2c(-c3ccc(C)c(C)c3)c(=O)c2=O)CC1,14.8
5,O=C(c1cc(Br)ccc1Cl)N1CCC2(CC1)OCCO2,-4.85
6,O=C(CN1C(=O)c2ccccc2C1=O)OCc1nc2ccsc2c(=O)[nH]1,18
7,CCn1cc(CN2CCCC(CNC(=O)COc3ccccc3OC)C2)c(C)n1 (centres unmarked),16.3
8,CC1Cc2ccccc2N1Cc1cccc([N+](=O)[O-])c1 (centres unmarked),9.32
9,CC(=O)C1=C(O)C(=O)N(CC#N)C1c1cccs1 (centres unmarked),15.9
10,CCc1ccc(-c2c(C)sc(NC(=O)C3CCC3)c2C#N)cc1,11.1
11,O=C(O)C1CCCCC1C(=O)Nc1ccc(-c2ccccc2)cc1 (centres unmarked),13.6
12,COc1cc2c(cc1OC)C(C(=O)NCC1COc3ccccc3O1)C(c1cccnc1)N(C)C2=O (centres unmarked),0.42
13,Cc1cc(C)cc(OC(=O)CCN2C(=O)C3C4C=CC(C5CC45)C3C2=O)c1 (centres unmarked),3.58
14,Cn1c(SCC(=O)N2CCCC2=O)nnc1-c1ccccc1F,10.3
15,FC(F)C(F)(F)C1=CC(c2ccccc2)=NCCN1,-5.03
16,Cc1nc2scc(-c3cccs3)c2c(=O)o1,3.08
17,Cc1cccnc1NC(=O)/C=C/c1ccc2c(c1)OCO2,1.18
18,COc1ccc(C2=NN(C(=O)CCC(=O)O)C(c3cccs3)C2)cc1 (centres unmarked),4.11
19,CCCCC(=O)N1CCN(c2ccc(OC)cc2[N+](=O)[O-])CC1,-54.5
20,O=S(=O)(NCc1ccco1)N1CCCCCC1,7.13
21,Cc1ccc(C)c(N2CCN(CCCNC(=O)CCC(=O)N3CCOc4ccc(Cl)cc43)CC2)c1,2.27
22,O=C(O)C(=O)O.O=S(=O)(c1ccc(F)cc1)N1CCC(N2CCCC2)CC1,3.58
23,O=C(COc1ccc2c3c(c(=O)oc2c1)CCC3)Nc1ccccn1,13.7

row,Compound,"hERG current change (%, negative = inhibition) at 1uM [%]"
1,O=C(O)c1cc([N+](=O)[O-])ccc1NCCc1ccccc1,13.2
2,Cc1ccc(OCC(=O)N2CCCC(CO)(CCOc3ccccc3)C2)cc1 (centres unmarked),8.76
3,Cc1nn(CC(=O)NCC2CCCO2)c(C)c1[N+](=O)[O-] (centres unmarked),18.8
4,COc1ccccc1CNC(=O)CCN1C(=O)c2ccccc2C1=O,11.8
5,O=C1C=CCC(/C=C/c2ccccc2)O1 (centres unmarked),17.4
6,CCOC(=O)CCCCC(=O)c1[nH]c(=O)[nH]c1CSc1nnc2c3cc(Br)ccc3n(C)c2n1,10.1
7,Cc1ccc(C)c(C(C)NC(=O)C2C3CCC(O3)C2C(=O)O)c1 (centres unmarked),14.4
8,N#C/C(=C\c1ccc(-c2ccccc2[N+](=O)[O-])o1)C(=O)Nc1nc(-c2cccs2)cs1,4.92
9,c1ccc(-c2nc3c([nH]2)CCc2nonc2-3)cc1,19.7
10,CC(=O)c1cccc(NC(=O)C2C3C=CC(C3)C2C(=O)O)c1 (centres unmarked),-5.87
11,Cc1nn(Cc2ccccc2)c2c1C(c1cccnc1)C(C#N)=C(N)O2 (centres unmarked),-8.47
12,Cc1cccc(C)c1NC(=S)/C(=C(\[O-])c1cccs1)[n+]1ccccc1,2.6
13,O=C(OCC(=O)N1CCN(c2ccccc2)CC1)c1ccc(Cl)cc1[N+](=O)[O-],-5.98
14,O=C(O)c1ccc(-n2nnnc2SCc2ccccc2F)cc1,16.5
15,Cc1nn(CC(=O)NC2CCC(C)CC2)c(C)c1[N+](=O)[O-] (centres unmarked),1.38
16,O=C(C1CCC(CNc2c(N3CCCCC3)c(=O)c2=O)CC1)N1CCN(c2ccccn2)CC1 (centres unmarked),4.44
17,Cc1c(N=C/C=C/c2ccccc2)cnn1C,-4.78
18,Cc1cc(C(=O)OCC(=O)c2c(N)n(C)c(=O)n(C)c2=O)c(C)n1-c1ccccc1,5.19
19,COc1cc(OC)cc(C(=O)N/N=C/c2ccc(OC)c(COc3ccc(F)cc3)c2)c1,6.55
20,COc1ccc(OC)c(NS(=O)(=O)c2ccc(NC(C)=O)cc2)c1,10.5
21,CC(C)(O)C#CC#CCN1CCOCC1,2.47
22,COc1ccccc1C(=O)NC(CCSC)C(=O)NCC(c1cccs1)N1CCOCC1 (centres unmarked),-10.8
23,CCC(C)N=CC1=C(O)C(C(=O)OC)C(C)(C)CC1=O (centres unmarked),-1.88

row,Compound,"hERG current change (%, negative = inhibition) at 1uM [%]"
1,O=C(Nc1nc(-c2cc(F)ccc2F)cs1)C1=NN(c2ccccc2)C(=O)CC1,8.56
2,CC1(C)NC(=O)N(CC(O)COc2ccccc2C(=O)Nc2ccccc2)C1=O (centres unmarked),-3.98
3,NC(=O)COc1ccccc1C(=O)O,14.6
4,CCc1nc2ccc(Br)cc2c(=O)n1-c1ccccc1C(F)(F)F,5.61
5,Cc1cc(C)n2nc(C(=O)Nc3ccc(S(=O)(=O)N(C)C)cc3)nc2n1,7.41
6,CC(C)C[C@@H](CN=[N+]=[N-])N1CCN(CC(C)C)CCC1=O,2.38
7,Cc1cccc(OCCC(=O)Nc2ccc(Cl)cc2F)c1,12.4
8,Cc1cc(C)n(-c2nnc(NC34CC5CC(CC(C5)C3)C4)nn2)n1,8.14
9,Cc1ccc2c(c1)C1CN(C)CCC1N2S(=O)(=O)c1cccc(C(F)(F)F)c1 (centres unmarked),-9.99
10,c1ccc(-c2noc(CN3CCN(c4cnccn4)CC3)n2)cc1,-11
11,COc1ccc(N2CCN(c3nc4c(c(=O)[nH]c(=O)n4C)n3Cc3cccc(C)c3)CC2)cc1,5.48
12,COc1ccc(CCNC(=O)CCc2ccc(S(=O)(=O)NC(C)C)cc2)cc1OC,7.74
13,Cc1cccc(OCc2nc(C#N)c(NCc3ccc4c(c3)OCO4)o2)c1,4.83
14,O=C(CCCCCN1C(=O)C2C3C=CC(C3)C2C1=O)Nc1nccs1 (centres unmarked),1.85
15,CCn1cc[n+](C)c1P(c1ccccc1)c1ccccc1.F[B-](F)(F)F,4.72
16,COc1cccc(/C=N/NC(=O)c2cnccn2)c1,6.99
17,O=C(CN1C(=O)NC2(CCc3ccccc32)C1=O)Nc1ccccc1OC(F)F (centres unmarked),17.5
18,CCc1cc(=O)oc2c(CN3CCN(C)CC3)c(O)c(Cl)cc12,8.07
19,CN(C)c1ccc(C(C(=O)NC2CCCC2)N(Cc2cccnc2)C(=O)c2snc(C(N)=O)c2N)cc1 (centres unmarked),11
20,CC1(C)CC2CC(C)(CN2S(=O)(=O)c2cccc(C(=O)O)c2)C1 (centres unmarked),-2.51
21,C=C(C)CN(CC)C(=O)Cn1cnc2c(oc3ccccc32)c1=O,9.64
22,CCOc1ccc(S(=O)(=O)NCCC(=O)NCc2ccco2)cc1,5.35
23,COc1ccc(-c2nn(C)c(=O)c3ccccc23)cc1CNS(C)(=O)=O,9.98

row,Compound,"hERG current change (%, negative = inhibition) at 1uM [%]"
1,CCC(C)(C(=O)NC1CCCC1)N(C)C(=O)Cc1c[nH]c2ccccc12 (centres unmarked),11.3
2,COC(=O)c1ccccc1NC(=O)CN1C(=O)c2ccccc2C1=O,7.69
3,O=C(COC(=O)/C=C/c1ccc(Br)o1)NCCCN1CCCC1=O,-5.35
4,CCN1CCCC(NC(=O)c2cc([N+](=O)[O-])ccc2OC)C1.Cl.O (centres unmarked),4.49
5,Cc1nnc(-c2cnn(C)c2N)n1Cc1ccccc1,-6.77
6,O=C(CN1CCOCC1)Nc1ccc(C2CCCCC2)cc1,1.99
7,CC(=O)c1cccc(NC(=O)N2CCCC2C(=O)Nc2cccc(C)c2)c1 (centres unmarked),-1.62
8,COc1cc(N/C=C2\CC(=O)NC(C)=C2C#N)cc(OC)c1OC,23
9,N#CC1=C(N)OC2=C(C(=O)CC(c3ccccc3)C2)C1c1cccnc1 (centres unmarked),3.41
10,CN(C)C(=O)CSc1nnc(CCCCCNC(=O)OC(C)(C)C)o1,3.29
11,COc1cccc(NC(=O)CCN2CCN(C)CC2)c1,3.91
12,O=c1c2ccccc2nc(COc2ccccc2)n1/N=C/c1ccc(O)cc1O,36
13,CCOC(=O)Cc1csc(NC(=S)NC(=O)CC(C)C)n1,10.5
14,COc1ccc(CCNC(=O)C(=O)NCc2ccccc2C)cc1OC,3.69
15,COc1ccc(CCN2CC(C(=O)NCCc3ccccc3C(F)(F)F)CCC2=O)cc1 (centres unmarked),-10.3
16,CC(C)(C)OC(=O)N1CCC(c2c(C(=O)N3CCN(C4CCCCC4)CC3)cnn2-c2ccccc2)CC1,-6.43
17,CCOc1cc(C(=O)Nc2cc(OC)cc(OC)c2)ccc1OCC(=O)N1CCOCC1,7.59
18,COC(=O)C1=C(NC(C)=O)CCS1,16.6
19,O=C(O)c1ccc(/C=C2\SC(=Nc3ccccc3)N(c3ccccc3)C2=O)cc1,17
20,Cc1ccc(NC(=O)C(C)OC(=O)c2ccc(Cl)nc2)cc1S(=O)(=O)N1CCOCC1 (centres unmarked),12.2

# From publication PMC4336329 (PLoS ONE, 2015)
